The results in this text go back to the RNAGym collection of RNA variant scans (doi:10.7554/elife.90254).

The source gives no read counts; variants with many changes may rest on few reads.

B1: LINE1-full (parent)
chain: UACGUAGGUGGUUUUCCCCUGAUAGUGCUAAGGGGGCCUGGAAGUUUGGACUGGGCAGAGCUCAACACAGCGUGGCAAAGUGGCUGUGGCUAGACUGCCUCUCUGGAUUCCUCGUCACUCAGCAGGGCAUCUCUGAGAGAAAUGCC

The variants in this data set derive from B1. Nature of the data set: self-cleavage, relative activity (ratio to wild type); higher = more cleavage; in vitro, sequencing; the parent is a self-cleaving ribozyme.
As to U5A U62C C110G, the self-cleavage worked out at 0.09. Consider U26C C37G U119C G122A A124G, for which the self-cleavage is 0.92. For the variant U46A U47C A59G U81A, the self-cleavage is 0.25.

As for G93C U104A U115C, the self-cleavage was found to be 0.06.

In the case of U46C U130C U134C, the self-cleavage was 1.91. Regarding A57U A92C A94U A107G, the self-cleavage stood at 0. The result for U15A A69U C118A A121G A124G reads 0.08.

For U12C U52G U132C, the self-cleavage stood at 2.25. On to A42G U47C C99U U100C A121G, for which the self-cleavage came out at 1.31.

Take U46C U100A U134C: the self-cleavage came out at 1.64. For the variant C18U A57G U109A U130A A140G, the self-cleavage is 0.66. As for U20C A50G A59G C68U U85A U100C A124G, the figure is 0.19. For U20G U52A A64U U85C U87A, the self-cleavage was 0.11. As to U1C U14C C84U, the self-cleavage stood at 0.12. The result for A43C A140G A141G U143G reads 1.2; that for C3U U9C G21A, 0.48; that for U15C A24G U45C A124G, 0. Turning to A64G U91C A141G, the self-cleavage stood at 0.39.

For the variant U14C A64G U104A, the self-cleavage was found to be 0.31. Regarding A2G U12G U13C A22U A117G, the self-cleavage came out at 2.42. Consider U47C A69U G83A U91A G106A, for which the self-cleavage was 0.04. As to A43G G70C A77U A94C A124U, the self-cleavage amounted to 0.15. For the variant G7U G34A A50G A142G, the self-cleavage was determined as 0.81. Turning to U13C U81A C120A, the self-cleavage came to 1.85.

U5A G35A A138U: the self-cleavage worked out at 0.34. With U62C U104A C116G A140G, the self-cleavage was 0.05. As for U1A A50G C76A, the figure is 1.23.

For U45C A107U A117G U143G, the self-cleavage came out at 0. For U15C G32A U96A G144A C145U, the self-cleavage is 0.02. A42G U100C U119C: the self-cleavage is 0. As for U46C U73A C84U U132C, the self-cleavage turned out to be 0.19. Turning to A67G A94G U100A, the self-cleavage worked out at 0.

As for U45A A94G U100C, the self-cleavage is 0.24. Take A65G U81A U85C: the self-cleavage is 0. As for A31U U96C A142G, the figure is 0.14; as for U13C U14C A59G A107G, 0.21; as for U62C A65U A69G G88A U108C A136G A140G, 0. As to U9C G40A U85A A92G U104C, the self-cleavage was determined as 0.16.

As for G60A U102C C131A A140G, the self-cleavage was 0.04. For the variant A69G A79G U132C, the self-cleavage stood at 0.14. With U13C U15C A59U U85A U119C, the self-cleavage worked out at 0.25. The result for U115C A117U U119A A138G A142G reads 0; that for A30U G49A U96C A138U, 0.15; that for U45C G53A U96C, 0.09. Turning to U45C U52A A94G, the self-cleavage worked out at 0. In the case of G72A U96A C110U U112A A124U A142G, the self-cleavage was 0. Take C51A U115A G125A: the self-cleavage turned out to be 1.12. On to U45C G83A C84A U85C, for which the self-cleavage stood at 0.16. As to U14A A69U A94G A129G A140G, the self-cleavage is 0.07. Take U102C A117G A136G G137U: the self-cleavage came out at 2.9.

As to U81A U102A U134C, the self-cleavage worked out at 2.51. The result for A24U G36U U96C A129G reads 0.17; that for U9C U20C U29C G54U A78G U109C U130A, 0; that for A6U A79G G86A, 0.25. Consider A69U U100C U130C A138G, for which the self-cleavage was 0.3.

For the variant U9A C19U A121U A141G, the self-cleavage came out at 0.66. As to U45A A69G U81A, the self-cleavage was determined as 0.28.

As to U12A U15A U46C, the self-cleavage was 0.95. Take U47A G49U A117G: the self-cleavage is 0.72. Take U13G A42G A43G A77U A140G: the self-cleavage came out at 0.6. As for C95A A121U A138U, the figure is 0.07. A43G G54A U100A: the self-cleavage came to 0.07.

As to A6U U15C A65U U87A A117G, the self-cleavage amounted to 0.33. For U26C U29C A65U A78G, the self-cleavage worked out at 0.23. Consider G72A U102G A138G U143C, for which the self-cleavage is 2.12. Turning to U12C A59U U62C A138U, the self-cleavage came to 0.05. For C84G U119A A141G, the self-cleavage worked out at 0.1. In the case of U109A A140G U143G, the self-cleavage stood at 0.49.

As to U14C U29A A140G, the self-cleavage came to 0.8. As for U1C G89A U100C, the self-cleavage was 0. For the variant U96C A121U A129G, the self-cleavage stood at 0.07. Regarding U46C U52G A65U A107G, the self-cleavage amounted to 0. As to A31G U39C U102A C128U, the self-cleavage worked out at 0.74. Consider A2G U15C G41A A69U, for which the self-cleavage stood at 0.34. The result for U13A U20C U73A U81A reads 1.29. Take U12C G33A U81C: the self-cleavage worked out at 1.06. On to U1A C116A U130G, for which the self-cleavage came out at 0.79. Turning to U46C G54A U96A, the self-cleavage was 0.04. U13C A78G U96C G125U: the self-cleavage is 0.1. In the case of U26C U47A U109A, the self-cleavage amounted to 1.84. As to G41U U62A A64U A138G, the self-cleavage was determined as 0.02. The result for U12C C19U U102C reads 0.53; that for U1C U39C U134C, 1.17; that for A22U U91A A129U, 0.76. As for U12C U52C U62C U81A A121G A124G G127A, the self-cleavage was 0. As for G44A A50G A65G G105U, the figure is 0.04; as for U14C U23C G60U, 0.12; as for U15C A50G U104C A121U, 1.45. U13A A57U U130C G135U: the self-cleavage was 0.13. For C19U A42G A77U U85A A124G A129U, the self-cleavage came to 0.04.

Consider U9A U29C U81A A94G A138G, for which the self-cleavage was found to be 0.95. As for G40A A117U U119A A138G, the figure is 1.39; as for U26C U52A A79G C116U U130C A138G, 0.51; as for U62C G86A U109C A141U, 0.03. The result for U5C U20C U81A reads 0.75; that for U39C A59G G82A A107G, 0.11. The result for U14C U29C G54A C101U reads 0.51.

As for C19A A24U A136U, the self-cleavage was 0.46.

As for U12C U39C U96A U109A, the self-cleavage was determined as 0.1. Regarding U52A U62C A67U, the self-cleavage was determined as 0.16. With U5C G27A U108C, the self-cleavage came out at 0.77. Take U9A G34A C76A U81C A142G U143C: the self-cleavage turned out to be 1.29.

As for U20C U62C A121G G122A, the self-cleavage stood at 0.03.

In the case of U14G U100C U112C, the self-cleavage was determined as 2.04. For the variant U12A A59U C76U A117G U119C, the self-cleavage was 1.56.

With U14A A43U A94G, the self-cleavage came to 0.26. The result for G127U A136G A138G reads 1.59; that for U9A A22G A78G, 1.05; that for G8U U14C U52A, 1.56. Regarding U15C U23A A136G, the self-cleavage was 1.56.

Turning to U12C U96C U112C A117U A141G, the self-cleavage was found to be 0.35. In the case of A22G G48A U62C, the self-cleavage came to 0.05. Take U13C A50U U62C U130G U132C: the self-cleavage is 0.35. As to A42U U104C A142G, the self-cleavage was 1.34. On to U26C U45C G75A, for which the self-cleavage worked out at 1.65.

Regarding U45C U109A A140G, the self-cleavage is 0.65. For the variant U1C A42G A69U A107G A124U, the self-cleavage was determined as 0.22.

U39C G44A U119C: the self-cleavage was 1.7. As for U13C U20A U108C, the figure is 1.56; as for U5C A24G U130C, 1.84.

For the variant U15C A43U U46C A50G U62C G106U, the self-cleavage is 0.36.

Turning to U20G U87G A138G, the self-cleavage was determined as 0.04.

As to U62C A121G A136G, the self-cleavage amounted to 0.05. C16U U29A U132C U134C: the self-cleavage worked out at 0.34. Consider C28G U85C U112C A142G, for which the self-cleavage is 0. The result for U12G C19U U104C U112A U115A A129G reads 2.09. For A94U G97A C145G, the self-cleavage was 0.02.

For U46C G89A U100G G139U, the self-cleavage amounted to 0. With U85C U112C A121U, the self-cleavage stood at 0.17. For A57G U109C A142G, the self-cleavage turned out to be 0.44. Take A59G U62C A107U U132A: the self-cleavage is 0.05. For G35U G40A U104A U112C U134C A142G, the self-cleavage worked out at 0.61. The result for U14C A31U C90U A107G reads 0.13; that for U45C A57G G72A U104A, 0.5; that for U14C A59U C84U, 0.17.

As to U1C G32A C71U U96A U102C, the self-cleavage was found to be 0.01. Take U15A U102A U108C A142G: the self-cleavage was 0.88. The result for A6G U85A C99A C101U U143C reads 0.18; that for U14C U46A U96A, 0.1.

G25A A57G G93A U119C: the self-cleavage is 0.04. With C37U A69G G135A A142G, the self-cleavage stood at 0.12. Regarding A43G U45C A69G U87A A138G, the self-cleavage was found to be 0.2. On to U15C U85A A92U U102C A121G C131U, for which the self-cleavage turned out to be 0.05. On to U5A U23C U45A U52A, for which the self-cleavage turned out to be 1.84. As to U13G U14C A79G, the self-cleavage amounted to 1.41.

Consider A42G U87C U134C, for which the self-cleavage came to 0.

For U12C U13A U39C A65G U100C, the self-cleavage amounted to 0. The result for U9C G55C A65G reads 0.09; that for U26C U73A A92U A129G, 0.68; that for A43G A64U A94G, 0.13. For U62C U85C U104C, the self-cleavage is 0. Turning to G33A U87C G144U, the self-cleavage came out at 0.28. On to G36A U73C G93U, for which the self-cleavage was found to be 0.03.

As for U13C U45A A78G U87A A124U, the self-cleavage was 0.1. For the variant C3U A24G G122A, the self-cleavage worked out at 0.77. As for A6G U23C U52A U130C, the figure is 0.75; as for U12C A31G G48A A67U U115A C120U, 0.25; as for A42G A57G U102C, 0.

As for A57U A77G A124U, the self-cleavage is 0.21. Consider U85C G135A A136C, for which the self-cleavage amounted to 0.28. Turning to A64C A78G U91A A136G, the self-cleavage is 0.04.

With U14C A43G U62C, the self-cleavage came out at 0.12. For the variant A59G U100C U130C A136U A138G, the self-cleavage came to 0. With A42G G44A U91C, the self-cleavage was found to be 0.97. The result for U45A U96A U132C reads 0.05; that for U45C U119A U143C, 0.9.

In the case of U14C U132A A136U, the self-cleavage turned out to be 1.26.
